# The other results are listed elsewhere or left out.
# B1: 3FTT (Staphylococcus aureus), Q5HCZ5 (protein)
# chain: MTEKEKMLAEKWYDANFDQYLINERARAKDICFELNHTRPSATNKRKELIDQLFQTTTDNVSISIPFDTDYGWNVKLGKNVYVNTNCYFMDGGQITIGDNVFIGPNCGFYTATHPLNFHHRNEGFEKAGPIHIGSNTWFGGHVAVLPGVTIGEGSVIGAGSVVTKDIPPHSLAVGNPCKVVRKIDNDLPSETLNDETIK
# Legend:
# Test in all cases: glycan array binding signal (z-score within array); higher = stronger binding
# Settings in all cases: glycan notation: IUPAC condensed, linker removed
# [1] = biological target: GlcNAc(a1-4)Gal(b1-4)GlcNAc(b1-3)Gal(b1-4)GlcNAc
# How it was run: (§1)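 Columns mapping to the same glycan were averaged after glycan names were converted to IUPAC-condensed notation. The data come from 3228 arrays in the Consortium for Functional Glycomics database, limited to those with an available protein sequence. Binding is reported as a within-array Z-score averaged across arrays of one protein sequence and across linkers.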
# [2] = biological target: GlcNAc(a1-4)Gal(b1-4)GlcNAc(b1-3)Gal(b1-4)GlcNAc(b1-3)Gal(b1-4)GlcNAc
# How it was run: as §1
# [3] = biological target: GlcNAc(a1-4)Gal(b1-4)GlcNAc(b1-3)Gal(b1-4)[Fuc(a1-3)]GlcNAc(b1-3)Gal(b1-4)[Fuc(a1-3)]GlcNAc
# How it was run: as §1
# [4] = biological target: GlcNAc(a1-6)Gal(b1-4)GlcNAc
# How it was run: as §1
# [5] = biological target: GlcNAc(b1-2)Gal(b1-3)GalNAc
# How it was run: as §1
# [6] = biological target: GlcNAc(b1-2)Man(a1-3)[GlcNAc(b1-2)Man(a1-6)]Man(b1-4)GlcNAc(b1-4)GlcNAc
# How it was run: as §1
# [7] = biological target: GlcNAc(b1-2)Man(a1-3)[GlcNAc(b1-2)Man(a1-6)]Man(b1-4)GlcNAc(b1-4)[Fuc(a1-6)]GlcNAc
# How it was run: as §1
# [8] = biological target: GlcNAc(b1-2)Man(a1-3)[GlcNAc(b1-4)][GlcNAc(b1-2)Man(a1-6)]Man(b1-4)GlcNAc(b1-4)GlcNAc
# How it was run: as §1
# [9] = biological target: GlcNAc(b1-2)[GlcNAc(b1-4)]Man(a1-3)[GlcNAc(b1-2)Man(a1-6)]Man(b1-4)GlcNAc(b1-4)GlcNAc
# How it was run: as §1
# [10] = biological target: GlcNAc(b1-2)[GlcNAc(b1-4)]Man(a1-3)[GlcNAc(b1-4)][GlcNAc(b1-2)Man(a1-6)]Man(b1-4)GlcNAc(b1-4)GlcNAc
# How it was run: as §1
# [11] = biological target: GlcNAc(b1-2)[GlcNAc(b1-4)]Man(a1-3)[GlcNAc(b1-4)][GlcNAc(b1-2)[GlcNAc(b1-6)]Man(a1-6)]Man(b1-4)GlcNAc(b1-4)GlcNAc
# How it was run: as §1
# [12] = biological target: GlcNAc(b1-2)[GlcNAc(b1-6)]Man(a1-6)[GlcNAc(b1-2)Man(a1-3)]Man(b1-4)GlcNAc(b1-4)GlcNAc
# How it was run: as §1
# [13] = biological target: GlcNAc(b1-2)[GlcNAc(b1-6)]Man(a1-6)[GlcNAc(b1-2)Man(a1-3)][GlcNAc(b1-4)]Man(b1-4)GlcNAc(b1-4)GlcNAc
# How it was run: as §1
# [14] = biological target: GlcNAc(b1-3)Gal
# How it was run: as §1
# [15] = biological target: GlcNAc(b1-3)Gal(b1-3)GalNAc
# How it was run: as §1
# [16] = biological target: GlcNAc(b1-3)Gal(b1-4)Glc
# How it was run: as §1
# [17] = biological target: GlcNAc(b1-3)Gal(b1-4)GlcNAc
# How it was run: as §1
# [18] = biological target: GlcNAc(b1-3)Gal(b1-4)GlcNAc(b1-3)Gal(b1-4)GlcNAc
# How it was run: as §1
# [19] = biological target: GlcNAc(b1-3)GalNAc
# How it was run: as §1
# [20] = biological target: GlcNAc(b1-3)Man
# How it was run: as §1
# [21] = biological target: GlcNAc(b1-3)[GlcNAc(b1-4)][GlcNAc(b1-6)]GlcNAc
# How it was run: as §1
# [22] = biological target: GlcNAc(b1-3)[GlcNAc(b1-6)]Gal(b1-4)GlcNAc
# How it was run: as §1
# [23] = biological target: GlcNAc(b1-3)[GlcNAc(b1-6)]GalNAc
# How it was run: as §1
# [24] = biological target: GlcNAc(b1-4)Gal(b1-4)GlcNAc
# How it was run: as §1
# [25] = biological target: GlcNAc(b1-4)GlcNAc
# How it was run: as §1
# [26] = biological target: GlcNAc(b1-4)GlcNAc(b1-4)GlcNAc
# How it was run: as §1
# [27] = biological target: GlcNAc(b1-4)GlcNAc(b1-4)GlcNAc(b1-4)GlcNAc(b1-4)GlcNAc
# How it was run: as §1
# [28] = biological target: GlcNAc(b1-4)GlcNAc(b1-4)GlcNAc(b1-4)GlcNAc(b1-4)GlcNAc(b1-4)GlcNAc
# How it was run: as §1
# [29] = biological target: GlcNAc(b1-4)[GlcNAc(b1-6)]GalNAc
# How it was run: as §1
# [30] = biological target: GlcNAc(b1-6)Gal(b1-4)GlcNAc
# How it was run: as §1
# [31] = biological target: GlcNAc(b1-6)GalNAc
# How it was run: as §1
# [32] = biological target: GlcNAc3Prop(b1-4)GlcNAc
# How it was run: as §1
# [33] = biological target: GlcNAc6S(b1-3)Gal(b1-4)GlcNAc
# How it was run: as §1
# [34] = biological target: Kdn(a2-3)Gal(b1-3)GalNAc
# How it was run: as §1
# [35] = biological target: Kdn(a2-3)Gal(b1-3)GlcNAc
# How it was run: as §1
# [36] = biological target: Kdn(a2-3)Gal(b1-4)Glc
# How it was run: as §1
# [37] = biological target: Kdn(a2-3)Gal(b1-4)GlcNAc
# How it was run: as §1
# [38] = biological target: Kdn(a2-3)Gal(b1-4)[Fuc(a1-3)]GlcNAc
# How it was run: as §1
# [39] = biological target: Kdn(a2-6)Gal(b1-4)GlcNAc
# How it was run: as §1
# [40] = biological target: Man(a1-2)Man(a1-2)Man(a1-3)Man
# How it was run: as §1
# [41] = biological target: Man(a1-2)Man(a1-2)Man(a1-6)[Man(a1-3)]Man
# How it was run: as §1
# [42] = biological target: Man(a1-2)Man(a1-3)Man
# How it was run: as §1
# [43] = biological target: Man(a1-2)Man(a1-3)[Man(a1-2)Man(a1-6)]Man
# How it was run: as §1
# [44] = biological target: Man(a1-2)Man(a1-3)[Man(a1-2)Man(a1-6)]Man(a1-6)[Man(a1-2)Man(a1-2)Man(a1-3)]Man
# How it was run: as §1
# [45] = biological target: Man(a1-2)Man(a1-3)[Man(a1-2)Man(a1-6)]Man(a1-6)[Man(a1-2)Man(a1-2)Man(a1-3)]Man(b1-4)GlcNAc(b1-4)GlcNAc
# How it was run: as §1
binder,measurement,setting,value
B1,glycan array binding signal (z-score),[1],0.607
same,glycan array binding signal (z-score),[2],-0.033
same,glycan array binding signal (z-score),[3],-0.099
same,glycan array binding signal (z-score),[4],0.025
same,glycan array binding signal (z-score),[5],0.3
same,glycan array binding signal (z-score),[6],-0.115
same,glycan array binding signal (z-score),[7],0.04
same,glycan array binding signal (z-score),[8],-0.062
same,glycan array binding signal (z-score),[9],-0.055
same,glycan array binding signal (z-score),[10],0.102
same,glycan array binding signal (z-score),[11],-0.003
same,glycan array binding signal (z-score),[12],-0.134
same,glycan array binding signal (z-score),[13],0.124
same,glycan array binding signal (z-score),[14],0.059
same,glycan array binding signal (z-score),[15],-0.178
same,glycan array binding signal (z-score),[16],-0.062
same,glycan array binding signal (z-score),[17],-0.025
same,glycan array binding signal (z-score),[18],0.092
same,glycan array binding signal (z-score),[19],-0.241
same,glycan array binding signal (z-score),[20],-0.063
same,glycan array binding signal (z-score),[21],-0.01
same,glycan array binding signal (z-score),[22],-0.075
same,glycan array binding signal (z-score),[23],-0.288
same,glycan array binding signal (z-score),[24],-0.16
same,glycan array binding signal (z-score),[25],-0.128
same,glycan array binding signal (z-score),[26],-0.157
same,glycan array binding signal (z-score),[27],-0.212
same,glycan array binding signal (z-score),[28],-0.225
same,glycan array binding signal (z-score),[29],-0.378
same,glycan array binding signal (z-score),[30],-0.001
same,glycan array binding signal (z-score),[31],-0.178
same,glycan array binding signal (z-score),[32],-0.072
same,glycan array binding signal (z-score),[33],-0.016
same,glycan array binding signal (z-score),[34],-0.059
same,glycan array binding signal (z-score),[35],0.165
same,glycan array binding signal (z-score),[36],-0.005
same,glycan array binding signal (z-score),[37],-0.201
same,glycan array binding signal (z-score),[38],0.16
same,glycan array binding signal (z-score),[39],-0.292
same,glycan array binding signal (z-score),[40],-0.082
same,glycan array binding signal (z-score),[41],-0.073
same,glycan array binding signal (z-score),[42],0.167
same,glycan array binding signal (z-score),[43],-0.204
same,glycan array binding signal (z-score),[44],-0.089
same,glycan array binding signal (z-score),[45],-0.02

# From the supplement of paper PMC8728848
